Data: the supplement of paper PMC9334596
“And” between values parts separate entries of the source, which are not always exact repeats. Equal values may be shown once. Over roughly 5,300 compounds, “PER2::LUC luminescence relative to vehicle control” has its median near 0.96; the highest 2% begin near 1.3. Some of the results follow.

Test system: mPer2Luc MEF
Assay: PER2::LUC luminescence relative to vehicle control (fold of vehicle); higher = higher PER2::LUC reporter signal
Conditions: 10 µM
Summary of the method: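 In 384-well plates, ~3000 mPer2Luc reporter mouse embryonic fibroblasts per well were cultured in DMEM with 10% FBS at 37 °C and 5% CO2 for 48 h before compounds from commercial libraries were added at 10 μM. ONE-Glo luciferase readings were taken 24 h and 30 h after treatment. Each value is PER2::LUC luminescence given as fold of vehicle control.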

Structure (SMILES)	PER2::LUC luminescence (time after treatment 24 h)	PER2::LUC luminescence (time after treatment 30 h)
COc1ccc2c(c1)/C(=C/c1cnc[nH]1)C(=O)N2	1.04	1.14
COc1ccc(C[C@H]2NC[C@H](O)[C@H]2OC(C)=O)cc1	1.15	1.02
CCCN(CCC)CCc1ccc(O)c(O)c1	0.848	0.909
CC1(C)C(C=C(Cl)Cl)C1C(=O)OCc1cccc(Oc2ccccc2)c1 (stereo not given)	1.08	0.813
Cc1ccc(O)cc1.Cc1cccc(O)c1.Cc1ccccc1O	0.934	0.923
CCNC1(c2cccs2)CCCCC1=O (stereo not given)	0.834	0.783
C[C@@H]1CC[C@H]2[C@@H](C)C(=O)O[C@@H]3O[C@@]4(C)CC[C@@H]1[C@]32OO4	0.995	1.05
OC1(c2ccc(Cl)cc2)c2ccccc2C2=NCCN21 (stereo not given)	0.954	0.914
CC[C@H]1[C@@H]2C[C@H]3[C@@H]4N(C)c5ccccc5[C@]45C[C@@H]([C@@H]2[C@H]5O)N3[C@@H]1O	1.04	0.956
CS(=N)(=O)CC[C@H](N)C(=O)O (stereo not given in full)	1.05 and 0.967	0.815 and 0.882
CCC1(c2cccc(O)c2)CCCCN(C)C1 (stereo not given)	0.933	0.857
CC1=CC(=O)C2=C(C)C[C@H](O)[C@@H]3[C@H](OC(=O)[C@H]3C)[C@@H]12	1.05	1.04
COc1ccc(C(=O)O[C@H]2CC[C@@]3(C)[C@@H]4CC[C@H]5[C@]6(O)C[C@H](O)[C@@]7(O)[C@@H](CN8C[C@@H](C)CC[C@H]8[C@@]7(C)O)[C@]6(O)C[C@@]53O[C@]24O)cc1OC	0.999	1.07
CNC(C)C(O)c1ccccc1 (stereo not given)	0.933	0.942
C[C@@H]1CN(Cc2ccc(F)cc2)CCN1C(=O)COc1ccc(Cl)cc1NC(N)=O	0.403 and 0.234	0.333 and 0.355
CC(C)(C)NCC(O)COc1cccc2[nH]c(C#N)cc12 (stereo not given)	0.891	0.75
CC[C@H]1CN2CCc3cc(OC)c(OC)cc3[C@@H]2C[C@@H]1C[C@H]1NCCc2cc(OC)c(OC)cc21	0.0089 and 0.006	
COc1cc([C@@H]2c3cc4c(cc3[C@H](O)[C@H]3COC(=O)[C@H]23)OCO4)cc(OC)c1OC	0.417 and 0.292	0.535 and 0.517
OCC(Br)(Br)Br	1.01	1.06
O=C1NC(=O)C(=O)C(=O)N1	0.993	0.912
NC(=O)[C@H](Cc1ccccc1)NC(=O)[C@H](Cc1ccccc1)NC(=O)[C@@H]1CCCN1C(=O)[C@@H](N)Cc1ccc(O)cc1	0.999	0.889

Structure (SMILES)	PER2::LUC luminescence (time after treatment 24 h)	PER2::LUC luminescence (time after treatment 30 h)
CC(C)C[C@H](CN)CC(=O)O	0.807	1.1
CCC(C)(C)O	0.999	0.969
C[C@@]1(CO)[C@H](O)CC[C@@]2(C)[C@H]1CC[C@H]1C[C@@H]3C[C@@]12CC[C@]3(O)CO	0.752	0.656
CC1(C(=O)O)C2CCC(O2)C1(C)C(=O)O (stereo not given)	1.12	0.846
CCCN(CCC)[C@@H]1CCc2c(OC)cccc2[C@@H]1C	0.943	0.875
CC(C)(C)NCC(O)c1ccccc1Cl (stereo not given)	0.906	0.931
Cc1cccc([C@H](C)c2c[nH]cn2)c1C	1.18 and 1.08	1.25 and 1.07
C[C@]12Cc3c[nH]nc3C[C@@H]1CC[C@@H]1[C@@H]2CC[C@@]2(C)[C@H]1CC[C@]2(C)O	1.1	1
Cc1nnc2ccc(-c3cccc(C(F)(F)F)c3)nn12	0.905	0.873
COc1cc2c(cc1-c1cc3cc4ccoc4cc3oc1=O)OCO2	1.11	1.09
COc1ccc2c(c1)CN(C)CC2c1ccc(Cl)c(Cl)c1 (stereo not given)	1.03	0.863
CCN1C[C@]2(COC)CC[C@H](O)[C@@]34C5C[C@@H]6[C@@H](OC)C[C@](O)(C(CC23)C14)C5[C@H]6OC(C)=O (stereo not given in full)	1.01	1.05
C#C[C@]1(O)C=C[C@H]2[C@@H]3CCC4=CC(=O)CC[C@@H]4[C@H]3CC[C@@]21CC	0.824	1.05
OC[C@@H](O)[C@H]1O[C@@H]2O[C@H](C(Cl)(Cl)Cl)O[C@@H]2[C@H]1O	1.15 and 0.879	1.26 and 0.923
CC(=O)OC12COC1CC(O)C1(C)C(=O)C(O)C3=C(C)C(O)CC(O)(C(OC(=O)c4ccccc4)C21)C3(C)C (stereo not given)	0.878	0.843
O=C(O)CCC1NCC2CC1CN1CCCCC21 (stereo not given)	0.935	0.866
C[N+]12CCC(CC1)C(OC(=O)C(O)(c1ccccc1)c1ccccc1)C2 (stereo not given)	0.956	0.904
CN1C(=O)CN=C(c2ccccc2)c2cc([N+](=O)[O-])ccc21	0.98	0.927
CC(=O)[C@H]1CC[C@H]2[C@@H]3CC[C@@H]4C[C@H](O)CC[C@]4(C)[C@H]3CC[C@]12C	0.987	1.06
COc1cc2c(cc1OC)[C@@H]1C(=O)c3ccc4oc(C(C)C)cc4c3O[C@@H]1CO2	0.182	0.202
CC(CC(C(N)=O)(c1ccccc1)c1ccccc1)N(C)C (stereo not given)	0.891	0.929

Structure (SMILES)	PER2::LUC luminescence (time after treatment 24 h)	PER2::LUC luminescence (time after treatment 30 h)
C[C@@]12N[C@@H](Cc3ccccc31)c1ccccc12	1.14	1
O=C1CCC[C@@H]2[C@H]3C[C@@H](CN12)[C@@H]1CCCCN1C3.[O-][Cl+3]([O-])([O-])O	1.01	1.05
C[C@]12CC[C@H]3[C@@H](CCC4=CC(=O)CC[C@@]43C)[C@@H]1CC[C@H]2O	0.954	0.889
C#CCN[C@H](C)Cc1ccccc1	1.01	0.818
CCCN(CCC)[C@@H]1CCc2cccc(O)c2C1	0.938	0.816
C[C@H]1C(=O)O[C@@H]2CCN3CC=C(COC(=O)[C@](C)(O)[C@]1(C)O)[C@H]23	0.965	0.929
CCCN1C[C@H](C)N([C@H](c2ccc(C(=O)N(CC)CC)cc2)c2cccc(OC)c2)C[C@H]1C	0.894	0.899
COC[C@]12CN(C=O)[C@@H]3[C@@H]4[C@H](OC)[C@H]1[C@@]3([C@@H](OC)C[C@H]2O)[C@@H]1C[C@@]2(O)[C@H](OC(=O)c3ccccc3)[C@@H]1[C@]4(OC(C)=O)[C@@H](O)[C@@H]2OC	1.04	0.968
COC(=O)C(c1ccccc1)C1CCCCN1 (stereo not given)	0.664	0.93
C=C(C)[C@@H]1[C@H]2OC(=O)[C@@H]1[C@]1(O)C[C@H]3OC34C(=O)O[C@H]2[C@@]41C.CC(C)(O)[C@@H]1[C@H]2OC(=O)[C@@H]1[C@]1(O)C[C@H]3OC34C(=O)O[C@H]2[C@@]41C (stereo not given in full)	0.876	1.08
CC(=O)OCC1=C(C(=O)O)N2C(=O)[C@@H](N)[C@H]2SC1	0.861	1.02
C[C@@H](NC(=O)[C@@H](N)Cc1ccc(O)cc1)C(=O)N[C@@H](Cc1ccccc1)C(=O)NCC(=O)N[C@@H](Cc1ccc(O)cc1)C(=O)N1CCC[C@H]1C(=O)N[C@@H](CO)C(N)=O	1.07	0.929
C/C=C(/C)C(=O)O[C@H]1CC[C@@]2(C)[C@@H]3CC[C@H]4[C@]5(O)C[C@H](O)[C@@]6(O)[C@@H](CN7C[C@@H](C)CC[C@H]7[C@@]6(C)O)[C@]5(O)C[C@]42O[C@]13O	1.01	0.994
CO[C@]12C[C@@H](COC(=O)c3cncc(Br)c3)CN(C)[C@@H]1Cc1cn(C)c3cccc2c13	0.883	0.851
C=C[C@]12CN(C)[C@@H]3[C@H]4CO[C@H](C[C@H]41)[C@]1(C(=O)Nc4ccccc41)[C@@H]32	1.06	1.1
CC(C)NP(=O)(NC(C)C)OP(=O)(NC(C)C)NC(C)C	0.962	0.904
C=CCc1ccccc1OCC(O)CNC1(C)CCC(C(C)(C)NC(=O)CBr)CC1 (stereo not given)	0.631	0.544
O=S(=O)(F)Cc1ccccc1	1.12	1.09
CSC(=S)NCc1c[nH]c2ccccc12	0.994	0.896
COc1cc([C@@H]2c3cc4c(c(O)c3C[C@H]3COC(=O)[C@@H]32)OCO4)cc(OC)c1OC	0.965	0.959
CC(=O)NBr	0.953	0.925

Structure (SMILES)	PER2::LUC luminescence (time after treatment 24 h)	PER2::LUC luminescence (time after treatment 30 h)
O=c1[nH]c(=O)n(Cl)c(=O)n1Cl	1.01	0.853
C[C@H](NC(=O)Cc1cc(F)cc(F)c1)C(=O)N[C@H]1N=C(c2ccccc2)c2ccccc2N(C)C1=O [Gamma-SECRETASE INHIBITOR XXI, COMPOUND E]	0.924	0.948
NC(=O)CN1CCCC1=O	0.842	1.1
NCc1cc(O)no1	0.944 and 0.875	1.03 and 0.962
CC(=O)OC1CCC23C(=O)OC45CCC(C6=CC(=O)OC6)C4(C)CCC2C5CCC3(O)C1 (stereo not given)	1.01	1.03
Oc1ccc2c3c1O[C@H]1c4oc5ccccc5c4C[C@@]4(O)[C@@H](C2)N(CC2CC2)CC[C@]314	0.925 and 0.898	1.02 and 0.908
CO[C@H](C)[C@](O)(C(=O)OCC1=CCN2CC[C@H](O)[C@@H]12)C(C)C	0.997	1.01
COc1c2c3c4c(c(OC)c(=O)c5c(O)cc(OC)c(c6c(OC)cc(O)c(c1=O)c63)c54)[C@@H](C(C)=O)[C@@](C)(O)C2	1.14	1.06
O=P1(NCCCl)OCCCN1CCCl (stereo not given)	0.866	1.01
Oc1ccc(Cl)cc1	1.07 and 1.04	1.02 and 1.01
CC1=CCC[C@@H]2C1(C)CCC(C)[C@@]2(C)CC/C(C)=C/C[n+]1cn(C)c2c(N)ncnc21 (stereo not given in full)	0.948	0.801
CN1CC[C@@]2(C)c3cc(OC(=O)Nc4ccccc4)ccc3N(C)[C@@H]12	0.901 and 0.98	0.886 and 0.703
N#CCCN	1.18	1.1
CC(C)c1c(CN(C)C(C)Cc2ccccc2)n(C)n(-c2ccccc2)c1=O (stereo not given)	1.02	0.911
C=C(C)[C@@H]1[C@H]2OC(=O)[C@@H]1[C@]1(O)C[C@H]3O[C@]34C(=O)O[C@H]2[C@]14C	0.976	1.02
COc1ccc2c(c1O)-c1cc(O)cc3c1[C@@H](C2)N(C)CC3	0.815	0.917
N#Cc1ccccc1-c1cc(-c2ccccn2)cn(-c2ccccc2)c1=O	0.947	1.06
C[C@]12CCC(=O)C=C1CCc1ccc(O)cc12	0.947	0.712
Cc1cccc(C)c1NC1=NCCCS1	1.03 and 0.704	0.939 and 1.06
O=C1CCC[C@@H]2[C@H]3CCCN4CCC[C@@H](CN12)[C@@H]34	1.03 and 1.09	0.999 and 1.13
